The supplement of paper PMC9588766
“And” between values parts separate entries of the source, which are not always exact repeats. Identical values can stand only once. Counter-ions that a name gives are not always drawn. ± gives the standard deviation of the averaged measurements. The full ranking holds about 2,000 compounds; the median of “cell viability relative to DMSO control (compound alone)” is about 0.98, and the lowest 2% start at about 0.23. The list shows a part of the results.

Test system: PDC-DUC18828
Assay: cell viability relative to DMSO control (compound alone) (fraction); PDC-DUC18828 is a patient-derived cholangiocarcinoma cell line; higher = less growth inhibition
Details: 1 µM; 72 h
Protocol: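 Selleck Bioactive library screen in the patient-derived FGFR2-G3BP2 fusion-positive ICC cell line PDC-DUC18828 (500 cells/well). Each compound was tested at 1 uM alone, in triplicate, for 72 h. Viability was read by CellTiter-Glo and normalised to plate DMSO controls.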

SMILES	cell viability
CN(C)C(=O)Nc1cccc(-c2ccc(N(C)C)cc2)c1 [Atglistatin]	0.939 ± 0.079
CC(C)CC(N)=O [Isovaleramide]	1.05 ± 0.017
CN1CCN(C2=Nc3ccccc3Oc3ccc(Cl)cc32)CC1 [Loxapine Succinate]	1.05 ± 0.022
N=C(NCCCCCCNC(=N)NC(=N)Nc1ccc(Cl)cc1)NC(=N)Nc1ccc(Cl)cc1 [Chlorhexidine HCl]	0.942 ± 0.057
COc1c2occc2cc2ccc(=O)oc12 [Methoxsalen]	1.01 ± 0.019
CCOC(=O)[C@@H](N)Cc1ccc(-c2cc(O[C@H](c3ccc(Cl)cc3-n3ccc(C)n3)C(F)(F)F)nc(N)n2)cc1 [Telotristat Etiprate (LX 1606 Hippurate)]	1 ± 0.037
c1ccc(NCc2ccc(CNc3ccccn3)cc2)nc1	1.03 ± 0.05
COC(=O)c1ccc2c(c1)nc(NC(=O)c1ccccc1)n2CCCc1ccccc1	0.926 ± 0.019
CN1CCN(Cc2ccc(Nc3ncc(Cl)c(Nc4ccccc4S(=O)(=O)N(C)C)n3)cc2)CC1	0.777 ± 0.018
Cc1nnc(C(=O)NC(C)(C)c2nc(C(=O)NCc3ccc(F)cc3)c(O)c(=O)n2C)o1 [Raltegravir (MK-0518)]	1.02 ± 0.069
O=C(NC[C@H]1CN(c2ccc(N3CCOCC3=O)cc2)C(=O)O1)c1ccc(Cl)s1 [Rivaroxaban]	0.987 ± 0.045
C[C@@H]1C[C@H]2[C@@H]3C[C@H](F)C4=CC(=O)C=C[C@]4(C)[C@@]3(F)[C@@H](O)C[C@]2(C)[C@@]1(O)C(=O)CO [Flumethasone]	0.976 ± 0.036
C[C@@H](Oc1ccc2[nH]nc(/C=C/c3cnn(CCO)c3)c2c1)c1c(Cl)cncc1Cl	0.234 ± 0.017
C[C@H]1O[C@H](O[C@H]2[C@H](O)[C@@H](O)[C@@H](O[C@H]3[C@H](O)[C@@H](O)C(O)O[C@@H]3CO)O[C@@H]2CO)[C@H](O)[C@@H](O)[C@@H]1N[C@H]1C=C(CO)[C@@H](O)[C@H](O)[C@H]1O (stereo not given in full) [Acarbose]	1.023 ± 0.0077
CNC1CCCN(c2c(F)cc3c(=O)c(C(=O)O)cn(C4CC4)c3c2OC)C1 (stereo not given) [Balofloxacin]	1.01 ± 0.035
CC[C@H]1[C@@H](O)[C@@H]2[C@H](CC[C@]3(C)[C@@H]([C@H](C)CCC(=O)O)CC[C@@H]23)[C@@]2(C)CC[C@@H](O)C[C@@H]12 [Obeticholic Acid]	0.945 ± 0.023
CN1CCC(=C2c3ccccc3C=Cc3ccccc32)CC1 [Cyproheptadine HCl]	0.996 ± 0.068
N=C(N)NC(=N)NCCc1ccccc1 [Phenformin HCl]	1.03 ± 0.013
CO[C@H]1/C=C/O[C@@]2(C)Oc3c(C)c(O)c4c(O)c(c(/C=N/N5CCN(C6CCCC6)CC5)c(O)c4c3C2=O)NC(=O)/C(C)=C\C=C\[C@H](C)[C@H](O)[C@@H](C)[C@@H](O)[C@@H](C)[C@H](OC(C)=O)[C@@H]1C [Rifapentine]	0.922 ± 0.01
CCCc1cc(C(N)=S)ccn1 [Protionamide]	0.942 ± 0.057
COc1cccc2c1c(O)c(C(=O)N(C)c1ccc(C(F)(F)F)cc1)c(=O)n2C [Tasquinimod]	0.922 ± 0.054
CC(=O)S[C@@H]1CC2=CC(=O)CC[C@]2(C)[C@H]2CC[C@@]3(C)[C@@H](CC[C@@]34CCC(=O)O4)[C@H]12 [Spironolactone]	0.932 ± 0.066
C#Cc1cccc(Nc2ncnc3cc(OC)c(OCCCCCCC(=O)NO)cc23)c1	0.865 ± 0.045
O=C(O)[C@]1(Cc2cccc(Nc3nccs3)n2)CC[C@@H](Oc2cccc(Cl)c2F)CC1	0.481 ± 0.023

SMILES	cell viability
COc1cc2c(Nc3ccc(NC(=O)c4ccccc4)cc3)ncnc2cc1OCCCN1CCOCC1	0.871 ± 0.029
CC(=O)Nc1ccc(C(=O)Nc2ccccc2N)cc1 [CI994 (Tacedinaline)]	0.99 ± 0.018
C=C1CC[C@H](O)C/C1=C/C=C1\CCC[C@]2(C)[C@@H]([C@H](C)CCCC(C)C)CC[C@@H]12 [Vitamin D3]	0.966 ± 0.016
CC(C)(O)[C@H]1CC[C@@](C)([C@H]2[C@@H](O)C[C@@]3(C)[C@@H]4C[C@H](O[C@@H]5O[C@H](CO)[C@@H](O)[C@H](O)[C@H]5O)[C@H]5C(C)(C)[C@@H](O[C@@H]6OC[C@@H](O)[C@H](O)[C@H]6O)CC[C@@]56C[C@@]46CC[C@]23C)O1 [Astragaloside A]	0.922 ± 0.024
COC(=O)Nc1nc2cc(C(=O)c3cccs3)ccc2[nH]1 [Nocodazole]	0.367 ± 0.024
COc1cc(Br)c(Nc2nc(-c3c(C)nc4ncccn34)cs2)c(Br)c1	0.453 and 0.354
CC(C)(C)c1cnc(CSc2cnc(NC(=O)C3CCNCC3)s2)o1	0.265 ± 0.013
CCN[C@H]1CN(CCCOC)S(=O)(=O)c2sc(S(N)(=O)=O)cc21 [Brinzolamide]	0.983 ± 0.037
CC(C)c1c(C(=O)Nc2ccccc2)c(-c2ccccc2)c(-c2ccc(F)cc2)n1CC[C@@H](O)C[C@@H](O)CC(=O)O [Atorvastatin Calcium]	0.958 ± 0.043
OC(Cn1cncn1)(Cn1cncn1)c1ccc(F)cc1F [Fluconazole]	1.02 ± 0.035
NCCc1c[nH]cn1 [Histamine 2HCl]	1.02 ± 0.033
C[C@@H](NCCCc1cccc(C(F)(F)F)c1)c1cccc2ccccc12 [Cinacalcet HCl]	0.937 ± 0.043
CC(=O)Nc1cccc(-n2c(=O)n(C3CC3)c(=O)c3c(Nc4ccc(I)cc4F)n(C)c(=O)c(C)c32)c1	0.89 ± 0.035
Nc1[nH]cnc2ncnc1-2 [Adenine HCl]	1.02 ± 0.019
COc1cc2ncnc(Sc3nnc(C)s3)c2cc1OC	1 ± 0.058
O=C(NC[C@H](O)CN1CCc2ccccc2C1)c1cc(NC2COC2)ncn1	0.914 ± 0.013
Cc1ccc(S(=O)(=O)c2ccc([N+](=O)[O-])o2)cc1	0.179 ± 0.033
O=C1NC(=O)C(c2cnc3ccccn23)=C1c1cn2c3c(cc(F)cc13)CN(C(=O)N1CCCCC1)CC2	0.635 ± 0.0071
C[C@]12C=CC(=O)C=C1CC[C@@H]1[C@@H]2C(=O)C[C@@]2(C)[C@H]1CC[C@]2(O)C(=O)CO [Prednisone]	1.09 ± 0.016
c1ccc2c(Oc3nc(Nc4ccc(N5CCOCC5)cc4)c4ncn(C5CCCCC5)c4n3)cccc2c1 [Purmorphamine]	0.933 ± 0.06
CCOC(=O)CCC(=O)O[C@H]1[C@H](O[C@@H]2[C@@H](C)[C@H](O[C@H]3C[C@@](C)(OC)[C@@H](O)[C@H](C)O3)[C@@H](C)C(=O)O[C@H](CC)[C@@](C)(O)[C@H](O)[C@@H](C)C(=O)[C@H](C)C[C@@]2(C)O)O[C@H](C)C[C@@H]1N(C)C [Erythromycin Ethylsuccinate]	1.02 ± 0.022
COc1cc(NC(=O)c2ccc(-c3ccc(Cl)cc3)o2)cc(OC)c1	0.995 ± 0.041
CS(=O)(=O)Nc1ccc([N+](=O)[O-])cc1Oc1ccccc1 [Nimesulide]	0.996 ± 0.019
C=CC(=O)Nc1cccc(Nc2nc(Nc3ccc(NC4CN(CCF)C4)cc3OC)ncc2C(F)(F)F)c1	0.9123 ± 0.0075

SMILES	cell viability
CCC1=C[C@@H]2CN(C1)Cc1c([nH]c3ccccc13)[C@@](C(=O)OC)(c1cc3c(cc1OC)N(C)[C@H]1[C@@](O)(C(=O)OC)[C@H](OC(C)=O)[C@]4(CC)C=CCN5CC[C@]31[C@@H]54)C2 [Vinorelbine Tartrate]	0.256 ± 0.012
CC(C)CN(C[C@@H](O)[C@H](Cc1ccccc1)NC(=O)O[C@H]1CCOC1)S(=O)(=O)c1ccc(N)cc1 [Amprenavir]	1.05 ± 0.053
CNC(=C[N+](=O)[O-])NCCSCc1csc(CN(C)C)n1 [Nizatidine]	1.02 ± 0.027
CCNC(=O)c1noc(-c2cc(Cl)c(O)cc2O)c1-c1ccc(OC)cc1	0.289 ± 0.039
CCOC(=O)c1ccc(N2NC(=O)C(=Cc3ccc([N+](=O)[O-])o3)C2=O)cc1	1.01 ± 0.055
CCn1cc(C(=O)O)c(=O)c2cc(F)c(N3CCN(C)CC3)cc21 [Pefloxacin Mesylate Dihydrate]	0.996 ± 0.053
CCn1cc(C(=O)O)c(=O)c2cc(F)c(N3CCN(C)CC3)cc21 [Pefloxacin Mesylate]	0.955 ± 0.053
C[C@@H]1CN(c2c(F)c(N)c3c(=O)c(C(=O)O)cn(C4CC4)c3c2F)C[C@H](C)N1 [Sparfloxacin]	1.02 ± 0.057
O=C(N/N=C/c1ccc([N+](=O)[O-])o1)c1ccc(O)cc1 [Nifuroxazide]	0.884 ± 0.047
Cc1cc(NC(=O)c2cccc(NC(=O)/C=C/CN(C)C)c2)ccc1Nc1nccc(-c2cccnc2)n1	0.973 ± 0.042
Cc1cccc(Nc2cc(Cl)nc(SCC(=O)O)n2)c1C	1.05 ± 0.021
Cc1cn([C@@H]2C[C@@H](O)[C@H](CO)O2)c(=O)[nH]c1=O [Telbivudine]	0.98 ± 0.026
CCc1cc(C(N)=S)ccn1 [Ethionamide]	1 ± 0.035
Cn1cc(C2=C(c3ccc(Cl)cc3Cl)C(=O)NC2=O)c2ccccc21	1.11 ± 0.038
OCc1ccc(O[C@@H]2O[C@H](CO)[C@@H](O)[C@H](O)[C@H]2O)cc1 [Gastrodin]	1.01 ± 0.062
O=C(NC(NC(=S)Nc1ccc(F)c([N+](=O)[O-])c1)C(Cl)(Cl)Cl)C(c1ccccc1)c1ccccc1 (stereo not given)	0.938 ± 0.037
C[C@H]1[C@H](NC(=O)/C(=N\OC(C)(C)C(=O)O)c2csc(N)n2)C(=O)N1S(=O)(=O)O [Aztreonam]	0.987 ± 0.045
COC(=O)c1ccc2c(c1)[nH]c1ncnc(NCCCN3CCCCC3)c12	0.9436 ± 0.0057
OC[C@H]1O[C@@H](OCCc2ccc(O)cc2)[C@H](O)[C@@H](O)[C@@H]1O [Salidroside]	0.983 ± 0.047
CCc1c2c(nc3ccc(OC(=O)N4CCC(N5CCCCC5)CC4)cc13)-c1cc3c(c(=O)n1C2)COC(=O)[C@]3(O)CC [Irinotecan]	0.306 ± 0.011
CCc1c2c(nc3ccc(OC(=O)N4CCC(N5CCCCC5)CC4)cc13)-c1cc3c(c(=O)n1C2)COC(=O)[C@]3(O)CC [Irinotecan HCl Trihydrate]	0.501 ± 0.014
C=C1/C(=C\C=C2/CCC[C@]3(C)[C@@H]([C@H](C)CCCC(C)(C)O)CC[C@@H]23)C[C@@H](O)C[C@@H]1O [Calcitriol]	0.968 ± 0.039
